Here are results for 35 sequences from the supplement of paper PMC10681739.

Over roughly 2,700 sequences, “arbitrary fluorescence units” has its median near 4,100; the highest 2% begin near 54,000. The list shows a part of the results.

The experiment concerns the target T1, ETS1 (UniProt P14921).
T1 sequence: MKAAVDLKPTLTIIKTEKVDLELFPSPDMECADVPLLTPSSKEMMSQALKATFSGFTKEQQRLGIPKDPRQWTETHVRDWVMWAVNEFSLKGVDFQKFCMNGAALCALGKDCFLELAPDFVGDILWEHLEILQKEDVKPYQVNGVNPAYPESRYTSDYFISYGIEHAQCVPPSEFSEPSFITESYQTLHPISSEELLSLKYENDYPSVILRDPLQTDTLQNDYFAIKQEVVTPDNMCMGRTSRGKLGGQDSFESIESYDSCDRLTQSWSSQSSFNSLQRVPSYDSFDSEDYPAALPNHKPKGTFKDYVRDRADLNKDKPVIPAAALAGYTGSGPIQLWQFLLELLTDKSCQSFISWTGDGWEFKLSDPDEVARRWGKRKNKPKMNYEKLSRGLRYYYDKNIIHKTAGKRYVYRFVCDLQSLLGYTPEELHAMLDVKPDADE
The experiment in a line: ETS1 binding intensity (PBM fluorescence) (arbitrary fluorescence units); higher = stronger binding. The conditions noted are these: ETS1 concentration 10 nM. The method, then: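 gcPBM on wild-type 36-bp genomic probes with two neighbouring ETS1 sites (4-24 bp apart). Recombinant human ETS1 (10 nM) was detected with anti-ETS1 antibody fluorescence. Values are medians over 3 replicate spots. The probes sit in constant array flanks that are not printed.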
As to AAACACGGAAATAACTTTTTTCTAACTTCCCGTAGT, the ETS1 binding intensity was 1780.

For CGAGCGGAAGCGCAGGCCTGGCCGTCAGTTCCGGAC, the ETS1 binding intensity is 4300.

CGAAACTTCCGGGGCTTCTTCGATTACTTCCGGTTC came in with an ETS1 binding intensity of 49200.

TCCCAGGCTCGGTGGAAGGCGGATGGCGGATGTCCG displayed an ETS1 binding intensity of 374.

In turn, GAAGGTATTTCCTGGCTCGTGAGTAGGAAATGTAAC had an ETS1 binding intensity of 11900.

The sequence TGCCCGGCTTCCGGGTGGCTGCGCGGAAGCGCGGTG had an ETS1 binding intensity of 20900.

As to CTGAAGCGGAAACACGTTTTTTCAAGTTCCTGTATT, the ETS1 binding intensity was 5930.

In turn, CACCTAGAGGAAACTCCAGGCACAGGAAGTGGTTCA yielded an ETS1 binding intensity of 2250.

In the case of TGCCTAGCTTCCTGCTTCTTGGCCTTCCTGCCACTC, the ETS1 binding intensity turned out to be 14700.

For the sequence CCGCCCGCCGGAAGTGGCGGCCCGGAACTACTCCCA, the ETS1 binding intensity is 23700.

TTAGCGAGGAGGGCGGAACGGAAACGCTCAGGCCCT returned an ETS1 binding intensity of 428.

For CACGGTGATTTCCTGTAAACAACAGGAAATGTACAG, the ETS1 binding intensity was 22700.

For the sequence TTTCTATCCTGCTGGCTGGAGGGTCCCGGAAGGGGA, the ETS1 binding intensity stood at 430.

TGGTGTTATTTCCTGTGTTAGACTTCCTACTTACTG registered an ETS1 binding intensity of 24300.

GCCGATTTCCTTTTCATTACTGCCACTTCCTCTGCG showed an ETS1 binding intensity of 16500.

Sequence GCTCGTCCCCATCCGGGACGCGTTTCCGCCGCCGCC returned an ETS1 binding intensity of 7320.

ATGGACACCGGAACTCAGAGTCCTTCCTCCTCTGCC registered an ETS1 binding intensity of 3140.

Take GAGACGGGACTTCCGGCTCCCGGGGAAGTCCCGCCC: the ETS1 binding intensity is 53500.

The sequence TGGTTGTACTTCCCTTGCTCTCAGGAAGCTCATTCA registered an ETS1 binding intensity of 1840.

Regarding GGACACAGGAAGACACACACGCACAGGAAGAAAGCT, the ETS1 binding intensity came to 1600.

TATAAAGGATGTGGGGTTGCAGAAACAGGAAATGAA: the ETS1 binding intensity amounted to 1430.

Consider ATGTCTGGGAAATGTAGTTTCTCAGCATCCGGTTAT, for which the ETS1 binding intensity turned out to be 2320.

Sequence GGGCTGCCCGGCCTTCCACTTCCGGCGCGGAAGTTG registered an ETS1 binding intensity of 23400.

With GCTGAGGCTTCAGGAAGCCACATCCTGGAGGGAGCT, the ETS1 binding intensity was 1830.

GCGCCTTCCGCTCCGCCCCTTCAGGCAGGAAGTGTC: the ETS1 binding intensity was 12800.

CCCAGGATGGGCTCCATGACGCTGGGCCGGAAGAAG had an ETS1 binding intensity of 248.

On to CACGCACATCATCCGGCACCATTTCCGTGCCCCGAA, for which the ETS1 binding intensity stood at 4750.

For the sequence CGCCCGCGCCTCCGGAACAGGAAACCGAGGGAATTA, the ETS1 binding intensity came out at 2050.

AAGGAGCCTTCCTGTAAGTCTCTCTTCCTCCCTTTC came in with an ETS1 binding intensity of 2940.

On to TATATCACCACAGGAAGCACATCCTGTCAGGTTGTC, for which the ETS1 binding intensity was 13600.

CACCAACTTCCTGGGCTCAAGCAATCTTCCTGCATC showed an ETS1 binding intensity of 19200.

For the sequence CCTCCACTTCCTGGGTTCAAGTGATTTCCTGCCTCA, the ETS1 binding intensity was found to be 20700.

Take GAGCCACTTCCTCCAGGAGCCAGGGCGGATGCAACC: the ETS1 binding intensity amounted to 14400.

In turn, AGGCAGGAAGAGGAGGGGAGGGTCCCACATCCTTCC came in with an ETS1 binding intensity of 766.

CTTCGTGGTTTTCCTGGGAGCATTTCCTGAGCGCTA gave an ETS1 binding intensity of 1360.
